In paper PMC12450465, “Oligomerization and exocyst coupling underlie Spa2-mediated focusing of polarized growth in fission yeast” (Journal of Cell Science, 2025):
These are yes or no findings as the source states them, for the method shown. For some assays here: Binding seen in cells or lysates may run through a third protein. Some results given as binding are weak or reduced against the parent protein; the word gives no strength. For some assays here: Tags and fused reporters may be left off the sequences shown. Values belong to the binder of their own block, whether it stands above or below them.

How the values were obtained:
[1] = biological target: T1, Spa2(305–360), yeast two-hybrid construct (S. pombe) (UniProt O42869); assay: two-hybrid; directed yeast two-hybrid, S. cerevisiae strain PJ69-4A, plasmids pGAD424 and pGBT9, growth selection on media lacking histidine
T1 sequence: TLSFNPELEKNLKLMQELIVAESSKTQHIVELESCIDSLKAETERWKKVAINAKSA

[2] = biological target: Pos1, yeast two-hybrid construct (S. pombe) (UniProt O13743); assay: as above
[3] = biological target: T2, Spa2(1–305)–GFP (S. pombe) (UniProt O42869); assay: co-IP; anti-GFP immunoprecipitation from S. pombe whole-cell lysates in NP40 buffer, native conditions; anti-FLAG immunoblot
T2 sequence: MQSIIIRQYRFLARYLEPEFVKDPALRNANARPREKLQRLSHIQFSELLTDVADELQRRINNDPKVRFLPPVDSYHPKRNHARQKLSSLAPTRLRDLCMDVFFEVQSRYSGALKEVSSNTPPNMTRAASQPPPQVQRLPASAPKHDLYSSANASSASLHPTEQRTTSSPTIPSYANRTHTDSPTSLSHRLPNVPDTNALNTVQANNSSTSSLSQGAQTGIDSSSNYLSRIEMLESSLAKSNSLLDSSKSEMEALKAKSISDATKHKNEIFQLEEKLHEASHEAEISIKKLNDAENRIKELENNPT

[4] = biological target: T3, Spa2–GFP (full length, from the endogenous spa2 locus) (S. pombe) (UniProt O42869); assay: as above
T3 sequence: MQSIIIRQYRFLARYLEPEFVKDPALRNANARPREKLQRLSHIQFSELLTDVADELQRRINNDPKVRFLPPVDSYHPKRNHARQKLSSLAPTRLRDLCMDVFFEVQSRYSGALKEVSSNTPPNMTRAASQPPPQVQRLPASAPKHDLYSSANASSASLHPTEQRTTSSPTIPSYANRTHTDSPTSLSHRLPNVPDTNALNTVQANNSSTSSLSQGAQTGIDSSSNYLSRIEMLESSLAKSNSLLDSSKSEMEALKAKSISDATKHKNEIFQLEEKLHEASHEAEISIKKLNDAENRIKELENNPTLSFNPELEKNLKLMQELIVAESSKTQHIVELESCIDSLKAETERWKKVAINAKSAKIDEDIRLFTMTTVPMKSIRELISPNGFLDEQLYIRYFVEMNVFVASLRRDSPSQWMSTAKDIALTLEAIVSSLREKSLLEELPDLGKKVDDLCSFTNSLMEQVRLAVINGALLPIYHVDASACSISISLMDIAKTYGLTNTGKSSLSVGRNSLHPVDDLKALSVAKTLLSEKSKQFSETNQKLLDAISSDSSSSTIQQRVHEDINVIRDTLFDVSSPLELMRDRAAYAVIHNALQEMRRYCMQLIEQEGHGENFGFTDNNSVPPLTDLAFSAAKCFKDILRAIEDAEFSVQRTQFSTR

[5] = biological target: T4, Spa2(1–360)–GFP (S. pombe) (UniProt O42869); assay: as above
T4 sequence: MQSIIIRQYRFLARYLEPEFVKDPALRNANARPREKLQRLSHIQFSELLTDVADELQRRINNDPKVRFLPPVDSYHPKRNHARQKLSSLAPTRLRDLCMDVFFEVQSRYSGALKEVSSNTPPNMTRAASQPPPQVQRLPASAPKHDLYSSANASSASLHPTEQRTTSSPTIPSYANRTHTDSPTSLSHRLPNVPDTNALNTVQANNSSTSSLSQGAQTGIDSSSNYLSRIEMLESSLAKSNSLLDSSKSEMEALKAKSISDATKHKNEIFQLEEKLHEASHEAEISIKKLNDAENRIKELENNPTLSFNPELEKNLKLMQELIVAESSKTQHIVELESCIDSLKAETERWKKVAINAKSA

[6] = biological target: Pos1, last 69 amino acids, yeast two-hybrid construct (S. pombe) (UniProt O13743); assay: two-hybrid; directed yeast two-hybrid, S. cerevisiae strain PJ69-4A, plasmids pGAD424 and pGBT9, growth selection on media lacking histidine
[7] = biological target: Spa2, yeast two-hybrid construct (S. pombe) (UniProt O42869); assay: as above
[8] = biological target: Spa2 (Spa2–FLAG and Spa2–GFP, two differently tagged copies in a spa2–FLAG spa2–GFP diploid strain) (S. pombe) (UniProt O42869); assay: co-IP; co-immunoprecipitation of Spa2–FLAG and Spa2–GFP from a spa2–FLAG spa2–GFP diploid strain, also from a diploid strain lacking Pos1; NP40 buffer, native conditions

binding [1]: binds
binding [2]: binds
B1: Pos1, yeast two-hybrid construct (protein, UniProt O13743 1-269)
chain: MAFSPANSFLINKSICESKEVEPLEANLFGKLHNKLLICKAKKENLEKKLAYQMMYSKLLKSLPKLSSLEENKLTKLKAPIEDMENTKKELEEIRKQSTETELRYLKSLSNTLSFGTLSLSNEINKVGPSASFMLKEVHDSVQVLEQRLEKMGLIEKPSESSESSIYSILASLKHTNDSLQKKELSPHEIAESPSSHSTSPMGRNVDTETLSFLLIDWQRLCAEQNTFLRDITNNMSSSVPQDVLSQLRQFFFRSELLSDKLSNLCSES

binding [3]: no binding
binding [4]: binds
binding [5]: binds
B2: FLAG-tagged Pos1 (protein, UniProt O13743 1-269)
chain: MAFSPANSFLINKSICESKEVEPLEANLFGKLHNKLLICKAKKENLEKKLAYQMMYSKLLKSLPKLSSLEENKLTKLKAPIEDMENTKKELEEIRKQSTETELRYLKSLSNTLSFGTLSLSNEINKVGPSASFMLKEVHDSVQVLEQRLEKMGLIEKPSESSESSIYSILASLKHTNDSLQKKELSPHEIAESPSSHSTSPMGRNVDTETLSFLLIDWQRLCAEQNTFLRDITNNMSSSVPQDVLSQLRQFFFRSELLSDKLSNLCSES

binding [6]: binds
B3: Pos1, last 69 amino acids, yeast two-hybrid construct (domain or fragment, UniProt O13743 201-269)
chain: PMGRNVDTETLSFLLIDWQRLCAEQNTFLRDITNNMSSSVPQDVLSQLRQFFFRSELLSDKLSNLCSES

binding [7]: binds
B4: Spa2, yeast two-hybrid construct (protein, UniProt O42869 1-659)
chain: MQSIIIRQYRFLARYLEPEFVKDPALRNANARPREKLQRLSHIQFSELLTDVADELQRRINNDPKVRFLPPVDSYHPKRNHARQKLSSLAPTRLRDLCMDVFFEVQSRYSGALKEVSSNTPPNMTRAASQPPPQVQRLPASAPKHDLYSSANASSASLHPTEQRTTSSPTIPSYANRTHTDSPTSLSHRLPNVPDTNALNTVQANNSSTSSLSQGAQTGIDSSSNYLSRIEMLESSLAKSNSLLDSSKSEMEALKAKSISDATKHKNEIFQLEEKLHEASHEAEISIKKLNDAENRIKELENNPTLSFNPELEKNLKLMQELIVAESSKTQHIVELESCIDSLKAETERWKKVAINAKSAKIDEDIRLFTMTTVPMKSIRELISPNGFLDEQLYIRYFVEMNVFVASLRRDSPSQWMSTAKDIALTLEAIVSSLREKSLLEELPDLGKKVDDLCSFTNSLMEQVRLAVINGALLPIYHVDASACSISISLMDIAKTYGLTNTGKSSLSVGRNSLHPVDDLKALSVAKTLLSEKSKQFSETNQKLLDAISSDSSSSTIQQRVHEDINVIRDTLFDVSSPLELMRDRAAYAVIHNALQEMRRYCMQLIEQEGHGENFGFTDNNSVPPLTDLAFSAAKCFKDILRAIEDAEFSVQRTQFSTR

binding [8]: binds
B5: Spa2 (Spa2–FLAG and Spa2–GFP, two differently tagged copies in a spa2–FLAG spa2–GFP diploid strain) (protein, UniProt O42869 1-659)
chain: MQSIIIRQYRFLARYLEPEFVKDPALRNANARPREKLQRLSHIQFSELLTDVADELQRRINNDPKVRFLPPVDSYHPKRNHARQKLSSLAPTRLRDLCMDVFFEVQSRYSGALKEVSSNTPPNMTRAASQPPPQVQRLPASAPKHDLYSSANASSASLHPTEQRTTSSPTIPSYANRTHTDSPTSLSHRLPNVPDTNALNTVQANNSSTSSLSQGAQTGIDSSSNYLSRIEMLESSLAKSNSLLDSSKSEMEALKAKSISDATKHKNEIFQLEEKLHEASHEAEISIKKLNDAENRIKELENNPTLSFNPELEKNLKLMQELIVAESSKTQHIVELESCIDSLKAETERWKKVAINAKSAKIDEDIRLFTMTTVPMKSIRELISPNGFLDEQLYIRYFVEMNVFVASLRRDSPSQWMSTAKDIALTLEAIVSSLREKSLLEELPDLGKKVDDLCSFTNSLMEQVRLAVINGALLPIYHVDASACSISISLMDIAKTYGLTNTGKSSLSVGRNSLHPVDDLKALSVAKTLLSEKSKQFSETNQKLLDAISSDSSSSTIQQRVHEDINVIRDTLFDVSSPLELMRDRAAYAVIHNALQEMRRYCMQLIEQEGHGENFGFTDNNSVPPLTDLAFSAAKCFKDILRAIEDAEFSVQRTQFSTR
